# Measurements published in the supplement of paper PMC11741623.
# The other results are listed elsewhere or left out. Interaction screen of human proteins with wild-type SARS-CoV-2 proteins by split-DHFR complementation in yeast, 1 µg/mL methotrexate. Value = fitness of the pair (three or more lineages) minus that of the viral protein without a human partner, on a scale set by negative (0) and fused positive (1) controls, mean of up to three cultures; higher = more likely to interact. Active = false discovery rate below 0.05 (one-sided t-test) in at least one culture. Nearly all pairs are not hits, and differences among them are mostly noise (correlation between cultures about 0.3); most hits were seen in one culture only. Human sequences are the Swiss-Prot entries looked up by gene name; the clone may be another isoform. NSP2 values were corrected by the authors for a growth advantage. Listed are human proteins with a hit and a random twelfth of the others.
# B1: HTRA4, P83105 (protein)
# chain: MIRPQLRTAGLGRCLLPGLLLLLVPVLWAGAEKLHTQPSCPAVCQPTRCPALPTCALGTTPVFDLCRCCRVCPAAEREVCGGAQGQPCAPGLQCLQPLRPGFPSTCGCPTLGGAVCGSDRRTYPSMCALRAENRAARRLGKVPAVPVQWGNCGDTGTRSAGPLRRNYNFIAAVVEKVAPSVVHVQLWGRLLHGSRLVPVYSGSGFIVSEDGLIITNAHVVRNQQWIEVVLQNGARYEAVVKDIDLKLDLAVIKIESNAELPVLMLGRSSDLRAGEFVVALGSPFSLQNTATAGIVSTKQRGGKELGMKDSDMDYVQIDATINYGNSGGPLVNLDGDVIGVNSLRVTDGISFAIPSDRVRQFLAEYHEHQMKGKAFSNKKYLGLQMLSLTVPLSEELKMHYPDFPDVSSGVYVCKVVEGTAAQSSGLRDHDVIVNINGKPITTTTDVVKALDSDSLSMAVLRGKDNLLLTVIPETIN
# B2: PGAP3, Q96FM1 (protein)
# chain: MAGLAARLVLLAGAAALASGSQGDREPVYRDCVLQCEEQNCSGGALNHFRSRQPIYMSLAGWTCRDDCKYECMWVTVGLYLQEGHKVPQFHGKWPFSRFLFFQEPASAVASFLNGLASLVMLCRYRTFVPASSPMYHTCVAFAWVSLNAWFWSTVFHTRDTDLTEKMDYFCASTVILHSIYLCCVRTVGLQHPAVVSAFRALLLLMLTVHVSYLSLIRFDYGYNLVANVAIGLVNVVWWLAWCLWNQRRLPHVRKCVVVVLLLQGLSLLELLDFPPLFWVLDAHAIWHISTIPVHVLFFSFLEDDSLYLLKESEDKFKLD
# B3: CNDP2, Q96KP4 (protein)
# chain: MAALTTLFKYIDENQDRYIKKLAKWVAIQSVSAWPEKRGEIRRMMEVAAADVKQLGGSVELVDIGKQKLPDGSEIPLPPILLGRLGSDPQKKTVCIYGHLDVQPAALEDGWDSEPFTLVERDGKLYGRGSTDDKGPVAGWINALEAYQKTGQEIPVNVRFCLEGMEESGSEGLDELIFARKDTFFKDVDYVCISDNYWLGKKKPCITYGLRGICYFFIEVECSNKDLHSGVYGGSVHEAMTDLILLMGSLVDKRGNILIPGINEAVAAVTEEEHKLYDDIDFDIEEFAKDVGAQILLHSHKKDILMHRWRYPSLSLHGIEGAFSGSGAKTVIPRKVVGKFSIRLVPNMTPEVVGEQVTSYLTKKFAELRSPNEFKVYMGHGGKPWVSDFSHPHYLAGRRAMKTVFGVEPDLTREGGSIPVTLTFQEATGKNVMLLPVGSADDGAHSQNEKLNRYNYIEGTKMLAAYLYEVSQLKD
# B4: C22orf13, Q96NT3 (protein)
# chain: MRTEAEAAGPPLEPGDFVQLPVPVIQQLYHWDCGLACSRMVLRYLGQLDDSEFERALQKLQLTRSIWTIDLAYLMHHFGVRHRFCTQTLGVDKGYKNQSFYRKHFDTEETRVNQLFAQAKACKVLVEKCTVSVKDIQAHLAQGHVAIVLVNSGVLHCDLCSSPVKYCCFTPSGHHCFCRTPDYQGHFIVLRGYNRATGCIFYNNPAYADPGMCSTSISNFEEARTSYGTDEDILFVYLDS
# B5: SRP14, P37108 (protein)
# chain: MVLLESEQFLTELTRLFQKCRTSGSVYITLKKYDGRTKPIPKKGTVEGFEPADNKCLLRATDGKKKISTVVSSKEVNKFQMAYSNLLRANMDGLKKRDKKNKTKKTKAAAAAAAAAPAAAATAPTTAATTAATAAQ
# B6: TMED10, P49755 (protein)
# chain: MSGLSGPPARRGPFPLALLLLFLLGPRLVLAISFHLPINSRKCLREEIHKDLLVTGAYEISDQSGGAGGLRSHLKITDSAGHILYSKEDATKGKFAFTTEDYDMFEVCFESKGTGRIPDQLVILDMKHGVEAKNYEEIAKVEKLKPLEVELRRLEDLSESIVNDFAYMKKREEEMRDTNESTNTRVLYFSIFSMFCLIGLATWQVFYLRRFFKAKKLIE
# B7: TMPRSS2, O15393 (protein)
# chain: MALNSGSPPAIGPYYENHGYQPENPYPAQPTVVPTVYEVHPAQYYPSPVPQYAPRVLTQASNPVVCTQPKSPSGTVCTSKTKKALCITLTLGTFLVGAALAAGLLWKFMGSKCSNSGIECDSSGTCINPSNWCDGVSHCPGGEDENRCVRLYGPNFILQVYSSQRKSWHPVCQDDWNENYGRAACRDMGYKNNFYSSQGIVDDSGSTSFMKLNTSAGNVDIYKKLYHSDACSSKAVVSLRCIACGVNLNSSRQSRIVGGESALPGAWPWQVSLHVQNVHVCGGSIITPEWIVTAAHCVEKPLNNPWHWTAFAGILRQSFMFYGAGYQVEKVISHPNYDSKTKNNDIALMKLQKPLTFNDLVKPVCLPNPGMMLQPEQLCWISGWGATEEKGKTSEVLNAAKVLLIETQRCNSRYVYDNLITPAMICAGFLQGNVDSCQGDSGGPLVTSKNNIWWLIGDTSWGSGCAKAYRPGVYGNVMVFTDWIYRQMRADG
# B8: ACAA2, P42765 (protein)
# chain: MALLRGVFVVAAKRTPFGAYGGLLKDFTATDLSEFAAKAALSAGKVSPETVDSVIMGNVLQSSSDAIYLARHVGLRVGIPKETPALTINRLCGSGFQSIVNGCQEICVKEAEVVLCGGTESMSQAPYCVRNVRFGTKLGSDIKLEDSLWVSLTDQHVQLPMAMTAENLAVKHKISREECDKYALQSQQRWKAANDAGYFNDEMAPIEVKTKKGKQTMQVDEHARPQTTLEQLQKLPPVFKKDGTVTAGNASGVADGAGAVIIASEDAVKKHNFTPLARIVGYFVSGCDPSIMGIGPVPAISGALKKAGLSLKDMDLVEVNEAFAPQYLAVERSLDLDISKTNVNGGAIALGHPLGGSGSRITAHLVHELRRRGGKYAVGSACIGGGQGIAVIIQSTA
# Tests used:
# Test in all cases: yeast fitness gain over the viral ORF with no human partner (scaled fitness); higher = more likely to interact
# [1] = target: SARS-CoV-2 E
# Procedure: (§1)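 Split mouse DHFR complementation in pooled diploid yeast: human ORFeome clones carry one fragment and viral ORFs the other; barcoded lineages compete in 1 µg/mL methotrexate and fitness is read by barcode sequencing in up to three cultures.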
# [2] = target: SARS-CoV-2 M
# Procedure: as §1
# [3] = target: SARS-CoV-2 NSP10
# Procedure: as §1
# [4] = target: SARS-CoV-2 NSP12
# Procedure: as §1
# [5] = target: SARS-CoV-2 NSP13
# Procedure: as §1
# [6] = target: SARS-CoV-2 NSP2
# Procedure: as §1
# [7] = target: SARS-CoV-2 NSP5
# Procedure: as §1
# [8] = target: SARS-CoV-2 NSP8
# Procedure: as §1
# [9] = target: SARS-CoV-2 ORF10
# Procedure: as §1
# [10] = target: SARS-CoV-2 ORF3B
# Procedure: as §1
# [11] = target: SARS-CoV-2 ORF6
# Procedure: as §1
# [12] = target: SARS-CoV-2 ORF7A
# Procedure: as §1
# [13] = target: SARS-CoV-2 ORF7B
# Procedure: as §1
# [14] = target: SARS-CoV-2 ORF8
# Procedure: as §1
# [15] = target: SARS-CoV-2 ORF9B
# Procedure: as §1
# [16] = target: SARS-CoV-2 ORF9Bwu (the 73-codon ORF)
# Procedure: as §1
# [17] = target: SARS-CoV-2 S
# Procedure: as §1
# [18] = target: SARS-CoV-2 N
# Procedure: as §1
# [19] = target: SARS-CoV-2 NSP1
# Procedure: as §1
# [20] = target: SARS-CoV-2 NSP15
# Procedure: as §1
# [21] = target: SARS-CoV-2 NSP16
# Procedure: as §1
# [22] = target: SARS-CoV-2 NSP4
# Procedure: as §1
# [23] = target: SARS-CoV-2 NSP6
# Procedure: as §1
# [24] = target: SARS-CoV-2 NSP7
# Procedure: as §1
# [25] = target: SARS-CoV-2 NSP9
# Procedure: as §1
# [26] = target: SARS-CoV-2 ORF3A
# Procedure: as §1
# [27] = target: SARS-CoV-2 NSP14
# Procedure: as §1
Binder,yeast fitness gain [1],yeast fitness gain [2],yeast fitness gain [3],yeast fitness gain [4],yeast fitness gain [5],yeast fitness gain [6],yeast fitness gain [7],yeast fitness gain [8],yeast fitness gain [9],yeast fitness gain [10],yeast fitness gain [11],yeast fitness gain [12],yeast fitness gain [13],yeast fitness gain [14],yeast fitness gain [15],yeast fitness gain [16],yeast fitness gain [17],yeast fitness gain [18],yeast fitness gain [19],yeast fitness gain [20],yeast fitness gain [21],yeast fitness gain [22],yeast fitness gain [23],yeast fitness gain [24],yeast fitness gain [25],yeast fitness gain [26],yeast fitness gain [27]
B1,inactive: -0.00438,inactive: 0.0435,inactive: 0.0228,inactive: -0.246,inactive: 0.0449,inactive: 0.0397,inactive: -0.0763,inactive: -0.126,inactive: 0.12,inactive: 0.00824,inactive: -0.234,inactive: -0.315,inactive: -0.00108,inactive: 0.0203,inactive: 0.0291,inactive: -0.0402,inactive: -0.243,,,,,,,,,,
B2,inactive: -0.346,inactive: -0.032,inactive: -0.0482,inactive: -0.00209,inactive: 0.0282,inactive: -0.128,inactive: -0.0502,inactive: 0.0188,inactive: -0.00925,inactive: -0.00322,inactive: 0.0194,inactive: 0.046,inactive: -0.0554,inactive: 0.0161,inactive: 0.0359,inactive: 0.0297,inactive: 0.0302,inactive: 0.0423,inactive: -0.147,inactive: 0.0488,inactive: -0.108,inactive: -0.053,inactive: 0.0541,inactive: -0.0972,inactive: -0.00662,inactive: 0.0358,
B3,inactive: -0.0245,inactive: 0.0454,inactive: 0.00824,inactive: 0.0502,inactive: -0.0703,inactive: 0.0826,inactive: -0.0192,inactive: -0.0424,inactive: -0.0672,inactive: 0.0522,inactive: -0.00721,inactive: 0.0126,inactive: -0.05,inactive: 0.0321,inactive: -0.013,,inactive: -0.0457,inactive: 0.0411,inactive: 0.152,inactive: 0.0365,inactive: 0.0271,,inactive: -0.0146,inactive: -0.067,inactive: 0.0124,inactive: -0.145,
B4,inactive: -0.297,inactive: 0.0585,inactive: -0.0545,,,,inactive: -0.0126,,,,,,,inactive: -0.00235,,inactive: 0.0104,inactive: -0.0354,inactive: -0.0396,inactive: 0.0509,inactive: 0.0169,inactive: 0.0788,inactive: 0.109,,,inactive: 0.00245,inactive: 0.0632,inactive: -0.0245
B5,inactive: 0.0357,inactive: -0.0251,inactive: 0.043,inactive: 0.0567,inactive: -0.003,inactive: -0.168,inactive: -0.0378,inactive: -0.0432,inactive: 0.0221,inactive: 0.0172,inactive: 0.0149,inactive: -0.057,inactive: 0.0115,inactive: -0.0279,inactive: 0.036,inactive: -0.0135,inactive: 6e-05,inactive: -0.0658,inactive: 0.0533,inactive: 0.0342,inactive: -0.0186,,inactive: -0.0304,inactive: -0.0936,inactive: 0.00538,inactive: -0.0742,
B6,inactive: -0.109,inactive: -0.0339,inactive: 0.018,inactive: -0.0204,inactive: -0.0386,inactive: -0.0785,inactive: -0.0474,inactive: -0.0128,inactive: 0.0485,inactive: -0.00517,inactive: -0.0127,inactive: 0.257,active: 0.314,inactive: -0.00243,inactive: 0.000988,inactive: -0.0199,inactive: 0.0399,inactive: -0.287,inactive: 0.0729,inactive: -0.165,inactive: 0.0179,,inactive: 0.0305,inactive: -0.114,inactive: 0.112,inactive: -0.0315,
B7,inactive: -0.0173,inactive: 0.046,inactive: 0.00756,inactive: 0.04,inactive: 0.0227,inactive: -0.127,inactive: 0.0357,inactive: 0.0313,inactive: 0.0578,inactive: 0.0187,inactive: -0.0162,inactive: 0.0134,inactive: -0.00222,inactive: 0.0268,inactive: 0.0135,inactive: 0.0337,inactive: 0.00824,inactive: -0.123,inactive: -0.0465,inactive: 0.0337,inactive: 0.0546,inactive: -0.112,inactive: -0.0166,inactive: 0.0713,inactive: -0.0642,inactive: -0.003,inactive: -0.00948
B8,inactive: -0.00605,inactive: 0.0469,inactive: 0.0601,inactive: 0.0666,inactive: 0.0666,inactive: -0.0608,inactive: 0.00697,inactive: 0.0672,inactive: 0.0656,inactive: 0.000666,inactive: 0.0344,inactive: 0.138,inactive: 0.0339,inactive: -0.0217,inactive: -0.0225,inactive: -0.00278,inactive: 0.0616,inactive: 0.115,inactive: -0.014,inactive: 0.00964,inactive: -0.0353,inactive: 0.173,inactive: 0.0401,inactive: 0.0153,inactive: 0.0306,inactive: 0.0474,inactive: -0.119
